Results: PubChem BioAssay AID1460 (National Center for Advancing Translational Sciences (NCATS), 2008)
Among all 270,000 compounds or so, about 5,800 (2.1%) were called active. The shares of active, inactive and inconclusive entries below differ from those in the screen. The call rests on the fitted dose curve; in most records, active means well fitted inhibition curve with a large enough effect; inconclusive means small, poorly fitted or top-dose-only effect; inactive means flat fitted curve, though single readings scatter. Potencies of inconclusive entries are doubtful fits and often do not repeat.

The compounds below were run against Microtubule-associated protein tau (Homo sapiens) (UniProt P10636) (assay: qHTS for Inhibitors of Tau Fibril Formation, Thioflavin T Binding). Details: recombinant tau K18 P301L (four-repeat tau fragment), heparin-induced fibrillization, ThT fluorescence; series mostly up to 57.4 µM; activity, negative = inhibition: at the top concentration.
Chain of UniProt P10636 (P10636 whole entry, looked up, the tested form may be a part): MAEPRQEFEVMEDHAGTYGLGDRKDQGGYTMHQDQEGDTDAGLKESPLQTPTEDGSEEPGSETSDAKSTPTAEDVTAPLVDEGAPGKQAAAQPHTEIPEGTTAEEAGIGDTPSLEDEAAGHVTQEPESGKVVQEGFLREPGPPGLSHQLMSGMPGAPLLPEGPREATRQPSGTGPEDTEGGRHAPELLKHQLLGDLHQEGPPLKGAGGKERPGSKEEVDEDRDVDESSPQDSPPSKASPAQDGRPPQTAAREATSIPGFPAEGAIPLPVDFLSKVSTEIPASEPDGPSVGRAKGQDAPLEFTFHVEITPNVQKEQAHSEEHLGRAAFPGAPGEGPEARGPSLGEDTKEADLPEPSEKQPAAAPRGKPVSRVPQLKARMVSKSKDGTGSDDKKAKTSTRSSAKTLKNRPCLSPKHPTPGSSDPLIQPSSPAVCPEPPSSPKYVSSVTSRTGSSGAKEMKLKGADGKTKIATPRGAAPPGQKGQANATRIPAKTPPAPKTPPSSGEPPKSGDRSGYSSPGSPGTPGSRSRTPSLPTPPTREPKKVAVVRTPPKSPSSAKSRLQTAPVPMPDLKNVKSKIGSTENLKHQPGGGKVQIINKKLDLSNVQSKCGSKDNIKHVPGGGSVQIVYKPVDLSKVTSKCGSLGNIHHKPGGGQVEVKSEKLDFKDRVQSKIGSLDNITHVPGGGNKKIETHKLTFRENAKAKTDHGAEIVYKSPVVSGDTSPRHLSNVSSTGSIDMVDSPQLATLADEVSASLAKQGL
How it was run: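 In this qHTS, human K18 P301L tau is incubated with compound and heparin for 6 hr at 37 C, and Thioflavin T fluorescence then reports fibril load.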
Further: nearly all actives have a fitted effect of over 55% in size.
On the % scale 0 is the no-effect control and ±100 the full control effect; potency means the concentration at half of the fitted maximal effect; tags describe the fitted curve by direction and shape.

| SMILES | Potency | activity, negative = inhibition |
| --- | --- | --- |
| Cc1nn(-c2ccccc2)c(Cl)c1C(=O)Nc1ccc(N2CCOCC2)cc1 | inconclusive: 14.1 µM [inhibitor, partial curve] |  |
| CCNC(=O)/C(C#N)=C/c1c(N(Cc2ccccc2)Cc2ccccc2)nc2ccccn2c1=O | inconclusive: 35.5 µM [inhibitor, partial curve, poor fit] |  |
| COc1c(O)c(O)c2oc(-c3ccccc3)cc(=O)c2c1OC | inconclusive: 25.1 µM [inhibitor, single point] |  |
| COc1ccc(CNC(=O)CCCn2c(=O)c3cccn3c3ccc(F)cc32)cc1OC |  | inactive: 0.648% |
| O=C(COC(=O)CCN1C(=O)/C(=C\C=C\c2ccccc2)SC1=S)Nc1cc(F)ccc1F | active: 6.31 µM |  |
| COC(=O)c1c(C)[nH]c(C(=O)OCC(=O)NC(C)(C)C)c1C |  | inactive: -7.44% |
| Cc1ccc(/C=N/Nc2nnc(Cl)c3ccccc23)cc1 | inconclusive: 14.1 µM [inhibitor, partial curve] |  |
| C=CCn1c(-c2csc3ccccc23)n[nH]c1=S | inconclusive: 28.2 µM [inhibitor, single point] |  |
| O=c1cc(-c2ccccc2)[nH][nH]1 | inconclusive: 15.8 µM [inhibitor, partial curve] |  |
| Cc1ccc(C)c(NC2=C(Cl)C(=O)OC2OC(=O)c2ccco2)c1 (stereo unspecified) | inconclusive: 20 µM [inhibitor, partial curve] |  |
| COc1ccccc1/C=N/N(C(C)=O)c1nc(-c2ccc(F)cc2)cs1 | inconclusive: 8.91 µM [inhibitor, full curve, poor fit] |  |
| S=c1[nH]nc(-c2cc(-c3ccco3)[nH]n2)n1-c1ccccc1Cl | active: 20 µM |  |
| O=C(Nc1ccc(Cl)c(C(F)(F)F)c1)c1ccc2c(c1)CCN2S(=O)(=O)c1ccccc1 |  | inactive: 9.96% |
| CC(=O)Nc1nc(C)c(-c2csc(Nc3ccc(O)cc3)n2)s1 | active: 8.91 µM |  |
| CCOc1cc(NC(=S)Nc2cccc(OC)c2)c(OCC)cc1NC(=O)C(C)C |  | inactive: -20.5% |
| CCOC(=O)c1ccc(NS(=O)(=O)c2ccc3c(c2)OCCO3)cc1 |  | inactive: -3.14% |
| Cc1ccc(CNc2ncnc3c2c(-c2ccccc2)cn3-c2ccccc2)cc1 |  | inactive: -8.15% |
| CC(=O)c1ccc(NC(=O)C2CC(=O)N(Cc3ccccc3)C2)cc1 (stereo unspecified) | active: 8.91 µM |  |
| COc1ccccc1OCCSc1nnnn1-c1ccc(C)cc1 | inconclusive: 35.5 µM [inhibitor, partial curve] |  |
| O=c1ccsn1Cc1ccccc1 | active: 10 µM |  |
| CCOC(=O)c1cnc(-n2[nH]c(C)c(Cc3ccccc3)c2=O)[nH]c1=O | inconclusive: 31.6 µM [inhibitor, single point] |  |
| CC(C)(C)Nc1oc(-c2ccccc2)nc1-c1cccc2ccccc12 |  | inactive: -6.1% |
| Cc1c([N+](=O)[O-])cc(C(=O)Nc2ccc(Cc3ccncc3)cc2)cc1[N+](=O)[O-] |  | inactive: -16.4% |
| COc1ccccc1Nc1ncc(-c2cccs2)s1 | active: 14.1 µM |  |

| SMILES | Potency | activity, negative = inhibition |
| --- | --- | --- |
| O=C1c2oc3ccccc3c(=O)c2C(c2ccc(O)cc2)N1c1nccs1 (stereo unspecified) |  | inactive: 1.06% |
| CSCC[C@@H]1NC(=O)C/C=C\[C@@H](C)COC(=O)[C@H](C)COC1=O |  | inactive: -1.5% [at 11.5 µM] |
| O=C(Nc1ccccc1)c1ccc(S(=O)(=O)N2CCCCC2)cc1 |  | inactive: -0.679% |
| COc1ccc(Cl)cc1Nc1cc(C)nc2nc(-c3ccccc3C)nn12 |  | inactive: 0.878% |
| Cc1cc(OC(F)F)ccc1NC(=O)Nc1ccc([N+](=O)[O-])cc1 | inconclusive: 14.1 µM [inhibitor, partial curve] |  |
| COc1ccc(Br)cc1CNC(=O)c1cc(=O)[nH]c2ccc(S(=O)(=O)N3CCCCC3)cc12 |  | inactive: 7.22% |
| Cc1cccc(C)c1NC(=O)CN(Cc1ccc(Br)cc1)S(=O)(=O)c1ccccc1 | inconclusive: 20 µM [inhibitor, single point] |  |
| CCCSc1nc(-c2ccc(OC)cc2)cc(-c2ccccc2OC)c1C#N | active: 22.4 µM |  |
| O=C(/C=C/c1ccc(Cl)cc1)N1CCN(c2c(Cl)cccc2[N+](=O)[O-])CC1 | inconclusive: 12.6 µM [inhibitor, partial curve, poor fit] |  |
| CCOc1ccc(C(=O)NC(=S)Nc2ccc(N3CCCCC3)cc2)cc1[N+](=O)[O-] | active: 3.55 µM |  |
| Clc1ccc(CONc2ncnc3nonc23)c(Cl)c1 | inconclusive: 14.1 µM [inhibitor, partial curve] |  |
| CC(C)c1ccc(C2C3CSCC=C3C(C#N)=C(N)C2(C#N)C#N)cc1 (stereo unspecified) | inconclusive: 39.8 µM [inhibitor, single point] |  |
| Nn1nnc2ccccc21 | inconclusive: 0.0282 µM [inhibitor, full curve, poor fit] |  |
| COc1cc(NC(=O)c2cc3c(C)nc4ccccc4c3o2)cc(OC)c1OC | inconclusive: 25.1 µM [inhibitor, partial curve] |  |
| O=C(O)COc1ccccc1/C=N/NC(=O)c1ccc(F)cc1 |  | inactive: -14.8% |
| COC(=O)c1cnc(SCc2ccc([N+](=O)[O-])cc2)n1C | inconclusive: 15.8 µM [inhibitor, partial curve] |  |
| Cc1ccc(N(C)S(=O)(=O)c2nnc(NC(=O)CC(C)C)s2)cc1 | inconclusive: 20 µM [inhibitor, single point] |  |
| COc1cccc2cc(-c3nnc(SCC(=O)NCCc4ccccc4)n3C)oc12 | inconclusive: 6.31 µM [inhibitor, full curve] |  |
| Cc1cccc(-n2ncc3c(N4CCCC4)ncnc32)c1 | inconclusive: 3.98 µM [inhibitor, partial curve] |  |
| O=C1C=C(NCCO)C(=O)c2cnccc21 | inconclusive: 39.8 µM [inhibitor, single point] |  |
| CCN(CC)c1ccc(NC(=O)c2sc3ccccc3c2Cl)cc1 | active: 0.891 µM |  |
| COc1ccc(OC)c(C(c2nnnn2C2CCCC2)N2CCN(c3ccc(F)cc3)CC2)c1 (stereo unspecified) | inconclusive: 39.8 µM [inhibitor, partial curve, poor fit] |  |
| S=c1[nH]nc(-c2cc(-c3ccccc3)n[nH]2)n1/N=C/c1ccc(Cl)cc1 | inconclusive: 25.1 µM [inhibitor, partial curve, poor fit] |  |
| COc1cccc(NC(=O)CCNC(=O)c2ccccc2Cl)c1 |  | inactive: -2.61% |

| SMILES | Potency | activity, negative = inhibition |
| --- | --- | --- |
| C/C(=N\NC(=O)c1cc(C)oc1C)c1ccc(N2CCOCC2)cc1 | inconclusive: 12.6 µM [inhibitor, partial curve] |  |
| COc1ccc(C2OC34CCCCC3C(C#N)(C#N)C2(C#N)C(=N)O4)cc1 (stereo unspecified) | inconclusive: 25.1 µM [inhibitor, single point] |  |
| CC(=O)c1c(C)[nH]c(C(=O)CSc2nnc(-c3ccc(Cl)cc3)n2CC2CCCO2)c1C (stereo unspecified) | inconclusive: 35.5 µM [inhibitor, single point] |  |
| Cc1nc2ccc(NC(=O)COc3ccccc3C)cc2s1 | inconclusive: 20 µM [inhibitor, partial curve] |  |
| O=C(COc1ccc2ccccc2c1)N1CCN(C(=O)c2ccco2)CC1 |  | inactive: -7.14% |
| CC(=O)c1c(C)[nH]c(C(=O)CSc2nnc(-c3ccco3)o2)c1C | inconclusive: 17.8 µM [inhibitor, partial curve] |  |
| CCn1c(CNc2ccc(OC)cc2)nnc1SCC(=O)c1ccc(OC)cc1 | inconclusive: 39.8 µM [inhibitor, single point] |  |
| CCOC(=O)c1ccc(-c2nnc(-c3ccc(Cl)cc3Cl)o2)cc1 | inconclusive: 2 µM [inhibitor, full curve] |  |
| O=C(OCn1ncc(Cl)c(Cl)c1=O)c1ccc(C(F)(F)F)cc1 | active: 31.6 µM |  |
| COc1cnc(SCc2ccc(Cl)c(Cl)c2)nc1Cl | inconclusive: 28.2 µM [inhibitor, single point] |  |
| CC1=NN(c2ccccc2)C(=O)/C1=C\c1cc(C)n(C)c1C | active: 3.55 µM |  |
| Cc1ccc(C2=C/C(=C\c3cccnc3)C(=O)O2)cc1 | inconclusive: 25.1 µM [inhibitor, single point] |  |
| COc1ccc2oc(=O)c(C(=O)Nc3cccc(C(=O)O)c3)cc2c1 | inconclusive: 8.91 µM [inhibitor, partial curve] |  |
| CC(=O)c1cc(NC(=O)c2ccccc2)c(=O)oc1C | active: 28.2 µM |  |
| Cc1cc(N2CCN(C)CC2)nc2ccc(NC(=S)N3CCN(c4ccccn4)CC3)cc12 | inconclusive: 28.2 µM [inhibitor, partial curve, poor fit] |  |
| COCCCN1C(=O)/C(=C\c2ccc3c(c2)OCO3)C(C(=O)OC)=C1C | inconclusive: 15.8 µM [inhibitor, partial curve] |  |
| COc1ccc(-c2nc(CS(=O)(=O)CC(=O)NCCc3cc(OC)ccc3OC)c(C)o2)cc1 | inconclusive: 17.8 µM [inhibitor, single point] |  |
| CCOc1ccc(NC(=O)N(CCC(C)C)C(C)c2ccco2)cc1 (stereo unspecified) | inconclusive: 39.8 µM [inhibitor, single point] |  |
| O=C(Nc1ccc(F)cc1F)c1ccc2c(c1)CCN2S(=O)(=O)c1ccc(Cl)cc1 |  | inactive: 3.26% |
| CCOc1ccc(CC2c3cc(OCC)c(OCC)cc3CCN2C(=O)c2cc(OC)c(OC)c(OC)c2)cc1OCC (stereo unspecified) | inconclusive: 11.2 µM [inhibitor, partial curve] |  |
| CCCOc1ccccc1NC(=O)CC1Nc2ccccc2NC1=O (stereo unspecified) | inconclusive: 39.8 µM [inhibitor, single point] |  |
| COc1ccc(-n2cc(C(=O)Nc3cc(F)ccc3F)c3ccccc3c2=O)cc1 |  | inactive: -9.34% |
| CCN(CC)C(=O)c1cc([N+](=O)[O-])cc2c1-c1ccc([N+](=O)[O-])cc1C2=C(C#N)C#N | active: 31.6 µM |  |
